PubChem BioAssay AID504333 (National Center for Advancing Translational Sciences (NCATS), 2011)
The whole screen tested about 360,000 compounds, of which about 16,000 (4.4%) were called active. Inconclusive means that the source gave no clear call. Such entries were picked first, then a sample of the others. The call rests on the fitted dose curve; in most records, active means well fitted inhibition curve with a large enough effect; inconclusive means small, poorly fitted or top-dose-only effect; inactive means no such curve, though single readings can be large or run the other way. Where the call is inconclusive, the potency comes from a doubtful curve fit.

Target: Bromodomain adjacent to zinc finger domain protein 2B (Homo sapiens) (UniProt Q9UIF8)
Assay: qHTS Assay for Inhibitors of BAZ2B; further: nearly all actives have a fitted effect of over 60% in size
Conditions: AlphaScreen BAZ2B-H3K14Ac peptide displacement; activity change, negative = inhibition: at 114 µM (top of the series) unless noted
Summary of the method: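 Compounds, titrated to a top concentration of 110 uM, were incubated 30 min at room temperature with preformed BAZ2B/acetyl-K14 H3 peptide complex (50 nM each). Proximity signal was measured by AlphaScreen after 20 min with beads.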
On the % scale 0 is the no-effect control and ±100 the full control effect; potency means the concentration at half of the fitted maximal effect; tags describe the fitted curve by direction and shape.

UniProt Q9UIF8, sequence (Q9UIF8 whole entry, looked up, the tested form may be a part): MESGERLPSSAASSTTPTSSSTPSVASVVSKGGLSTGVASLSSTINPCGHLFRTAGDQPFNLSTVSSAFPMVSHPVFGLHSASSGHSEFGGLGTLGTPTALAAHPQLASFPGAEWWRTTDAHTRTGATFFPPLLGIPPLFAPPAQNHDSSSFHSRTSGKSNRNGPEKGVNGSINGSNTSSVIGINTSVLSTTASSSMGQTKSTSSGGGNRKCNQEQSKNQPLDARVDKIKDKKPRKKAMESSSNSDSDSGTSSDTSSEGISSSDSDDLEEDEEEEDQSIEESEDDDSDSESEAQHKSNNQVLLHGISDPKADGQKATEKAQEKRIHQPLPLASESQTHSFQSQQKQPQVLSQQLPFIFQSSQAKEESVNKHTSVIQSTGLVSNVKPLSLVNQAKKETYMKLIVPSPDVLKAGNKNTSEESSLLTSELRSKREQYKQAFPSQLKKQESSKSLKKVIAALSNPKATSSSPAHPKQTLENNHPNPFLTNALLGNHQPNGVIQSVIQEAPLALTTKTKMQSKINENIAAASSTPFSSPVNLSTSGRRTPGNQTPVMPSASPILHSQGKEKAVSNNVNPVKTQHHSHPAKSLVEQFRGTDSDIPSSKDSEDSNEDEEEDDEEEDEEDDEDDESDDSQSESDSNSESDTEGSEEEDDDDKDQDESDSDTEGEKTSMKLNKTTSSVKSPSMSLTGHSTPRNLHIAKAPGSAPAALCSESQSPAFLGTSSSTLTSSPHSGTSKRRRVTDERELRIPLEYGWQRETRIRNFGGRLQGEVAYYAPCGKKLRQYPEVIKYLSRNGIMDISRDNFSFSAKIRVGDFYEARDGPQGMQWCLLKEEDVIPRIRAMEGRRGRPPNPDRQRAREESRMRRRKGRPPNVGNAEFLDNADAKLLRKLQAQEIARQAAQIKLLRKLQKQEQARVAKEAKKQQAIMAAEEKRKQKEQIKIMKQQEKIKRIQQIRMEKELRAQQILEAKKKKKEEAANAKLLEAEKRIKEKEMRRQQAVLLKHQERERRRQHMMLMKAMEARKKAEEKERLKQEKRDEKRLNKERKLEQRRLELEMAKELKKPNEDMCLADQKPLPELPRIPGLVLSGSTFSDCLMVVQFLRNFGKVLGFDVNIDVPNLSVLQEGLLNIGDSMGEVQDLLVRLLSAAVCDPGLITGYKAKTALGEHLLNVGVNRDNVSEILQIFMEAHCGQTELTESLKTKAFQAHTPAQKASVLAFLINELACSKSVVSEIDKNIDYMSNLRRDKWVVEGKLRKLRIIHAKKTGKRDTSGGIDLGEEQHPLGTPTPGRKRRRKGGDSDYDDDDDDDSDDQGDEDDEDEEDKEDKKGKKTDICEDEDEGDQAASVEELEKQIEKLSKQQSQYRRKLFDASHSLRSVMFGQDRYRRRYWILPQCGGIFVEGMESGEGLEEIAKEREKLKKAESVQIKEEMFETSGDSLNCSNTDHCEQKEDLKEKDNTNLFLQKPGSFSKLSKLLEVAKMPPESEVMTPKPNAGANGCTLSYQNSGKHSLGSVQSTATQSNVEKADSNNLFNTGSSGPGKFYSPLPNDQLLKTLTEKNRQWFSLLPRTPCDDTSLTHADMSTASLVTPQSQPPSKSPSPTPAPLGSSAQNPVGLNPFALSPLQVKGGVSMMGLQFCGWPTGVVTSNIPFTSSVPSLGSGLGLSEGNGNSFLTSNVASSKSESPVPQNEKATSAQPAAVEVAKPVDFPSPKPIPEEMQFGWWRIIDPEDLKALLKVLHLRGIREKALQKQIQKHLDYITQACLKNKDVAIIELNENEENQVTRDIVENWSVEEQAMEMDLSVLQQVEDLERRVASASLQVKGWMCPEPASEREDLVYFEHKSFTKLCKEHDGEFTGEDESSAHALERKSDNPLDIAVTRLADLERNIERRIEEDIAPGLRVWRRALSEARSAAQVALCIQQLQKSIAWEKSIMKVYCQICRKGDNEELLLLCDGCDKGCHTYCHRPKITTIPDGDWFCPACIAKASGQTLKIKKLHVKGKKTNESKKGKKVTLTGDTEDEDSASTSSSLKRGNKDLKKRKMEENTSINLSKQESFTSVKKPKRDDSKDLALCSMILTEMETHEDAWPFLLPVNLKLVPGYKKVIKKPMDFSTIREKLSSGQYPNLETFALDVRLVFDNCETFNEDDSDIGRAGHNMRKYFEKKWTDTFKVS

SMILES	Potency	activity change, negative = inhibition
COc1ccc(/C=N/Nc2nc(Nc3ccccc3)nc(N3CCCCC3)n2)c(OC)c1	inconclusive: 25.1 µM [inhibitor, full curve, poor fit]	–
COc1cccc(NS(=O)(=O)NC(=O)c2c[nH]c3ccccc23)c1	inconclusive: 56.2 µM [inhibitor, partial curve]	–
COc1cc(CNc2nnnn2C)cc(OC)c1OC	inactive	–
O=C(CCCCCn1c(=O)[nH]c2ccccc2c1=O)N1CCN(c2ccc(Cl)cc2)CC1	inconclusive: 22.4 µM [inhibitor, full curve]	–
COc1cc(OC)nc(N/N=C(\c2ccccc2)c2ccncc2)n1	inconclusive: 89.1 µM [inhibitor, single point]	–
O=S(=O)(c1ccc(F)cc1)N1CCC(N2CCCCCC2)CC1	inconclusive: 89.1 µM [inhibitor, single point]	–
CN(C)c1ccc(C2CC(c3c(O)n(C4CCCCC4)c(=O)[nH]c3=O)=Nc3ccccc3S2)cc1 (configuration not stated)	inactive	–
CCCCC1=CC2=C(c3ccco3)C(=O)C(C)(OC(=O)c3ccc(OC)cc3)C(=O)C2=CN1CCCOC(C)C (configuration not stated)	inconclusive: 35.5 µM [inhibitor, partial curve]	–
N#Cc1c(N)n[nH]c1-c1cc2c([nH]1)CCCC2	inconclusive: 89.1 µM [inhibitor, single point]	–
S=C(NC1CCCCC1)N1CCOCCOCCN(C(=S)NC2CCCCC2)CCOCCOCC1	inconclusive: 89.1 µM [inhibitor, single point]	–
Oc1ccc(O)c(-c2cnns2)c1	inactive	–
COc1cccc(Nc2nc(N)nc(-c3oc4ccccc4c3C)n2)c1	inconclusive: 89.1 µM [inhibitor, single point]	–
Cc1nc(NC(=O)c2c(-c3ccccc3Cl)noc2C)sc1C	inconclusive: 70.8 µM [inhibitor, single point]	–
Cc1cc(C)c(C)c(S(=O)(=O)N[C@@H](C)C(=O)OCc2cc(=O)n3cc(Br)ccc3n2)c1C	active: 50.1 µM	–
Cc1nc(-c2ccc(F)cc2)c(CC(=O)Nc2ccc(C)c(S(=O)(=O)N3CCOCC3)c2)s1	inconclusive: 79.4 µM [inhibitor, single point]	–
Cc1nc2nc(C)c(NS(=O)(=O)c3ccc(Cl)s3)c(=O)n2[nH]1	inactive	–
O=C(NNc1cccc([N+](=O)[O-])c1)/C(=C\c1cccnc1)NC(=O)c1ccccc1	inactive	–
CCCOc1ccc(C2C(=O)N(C3CCCCCC3)CC(=O)N2Cc2ccc(OC)cc2)cc1OC (configuration not stated)	inactive	–
COc1ccc(/C=C/C(=O)c2c(O)cc(C)oc2=O)c(OC)c1	inconclusive: 89.1 µM [inhibitor, single point]	–
CCN(CC)c1ccc(NC(=O)c2cccnc2)cc1	inconclusive: 39.8 µM [inhibitor, full curve, poor fit]	–
Cc1ccc(-c2csc(Nc3ccccc3)[n+]2CCc2ccccc2)cc1	active: 8.91 µM	–
Cc1ccc(COc2ccsc2C(=O)NNC(N)=S)cc1	inactive	–
O=c1[nH]c2ccccc2cc1CN(Cc1cccnc1)S(=O)(=O)c1ccc([N+](=O)[O-])cc1	inconclusive: 44.7 µM [inhibitor, partial curve]	–
CN(CC(=O)Nc1cccc(F)c1)CC(=O)Nc1ccccc1[N+](=O)[O-]	inconclusive: 100 µM [inhibitor, single point]	–

SMILES	Potency	activity change, negative = inhibition
Oc1c(C(c2ccccn2)N2CCCCC2)cc(Cl)c2cccnc12 (configuration not stated)	active: 7.94 µM	–
O=C(COC(=O)c1ccc(F)cc1Cl)NCc1ccco1	active: 50.1 µM	–
OCCNCc1ccc(-c2ccccc2)cc1	inactive	–
COc1ccccc1-c1cc(N)n(S(=O)(=O)c2cccc3nsnc23)n1	inconclusive: 35.5 µM [inhibitor, partial curve]	–
CS(=O)(=O)N(CC(=O)N/N=C/c1cc([N+](=O)[O-])ccc1Cl)c1ccccc1	inconclusive: 100 µM [inhibitor, single point]	–
O=C(Nc1ccccc1C(F)(F)F)Nc1c[nH]c(=O)[nH]c1=O	inactive	–
Nc1nc(Nc2ccccc2)nc(NCc2ccccc2)c1[N+](=O)[O-]	inconclusive: 79.4 µM [inhibitor, partial curve]	–
COc1ccc(OCC(=O)N/N=C/c2cccn2-c2cccc(C(=O)O)c2)cc1	active: 79.4 µM	–
O=[N+]([O-])c1ccc(O)c(/C=N/Nc2ccccn2)c1	active: 4.47 µM	–
O=C(CSc1nc(=O)n2cc(Cl)ccc2n1)Nc1cccc2ccccc12	inconclusive: 79.4 µM [inhibitor, single point]	–
CCOC(=O)CCCCC(=O)c1[nH]c(=O)[nH]c1CSCCO	active: 12.6 µM	–
CCN1CCN(Cc2ccc(NC(=O)c3cc(NC(=O)c4cc(C)on4)cc(OC)c3)cc2C(F)(F)F)CC1	inconclusive: 44.7 µM [inhibitor, partial curve]	–
Cc1ccc(Cl)cc1N1CCN(C(=O)Cc2c(C(=O)O)c(C)cn2C)CC1	inconclusive: 79.4 µM [inhibitor, single point]	–
Cc1ccccc1-n1c(SCC(=O)c2cc(C)n(C)c2C)nnc1-c1ccncc1	–	inconclusive: -50.7% [inhibitor]
CCN(CC)C(=O)c1cc(S(=O)(=O)N2CCCCC2)c[nH]1	inconclusive: 79.4 µM [inhibitor, single point]	–
O=C(COC(=O)c1cccc(S(=O)(=O)N2CCc3ccccc32)c1)Nc1ccc(Cl)cn1	inconclusive: 44.7 µM [inhibitor, partial curve]	–
Cc1cc(Nc2ccc(N3CCC(C)CC3)cc2)n2ncnc2n1	active: 56.2 µM	–
CC1(C)CC(=O)C2=C(C1)OC(N)=C(C#N)C2c1cn(-c2ccccc2)nc1-c1ccccc1 (configuration not stated)	inactive	–
Cc1cc(F)ccc1NC(=O)C(C(C)C)N1Cc2ccccc2C1=O (configuration not stated)	inactive	–
COc1ccccc1NC(=O)c1nnn(-c2ccc(F)cc2)c1C	inactive	–
Fc1cccc(/C=N/Nc2ncnc3nc[nH]c23)c1	inconclusive: 3.55 µM [inhibitor, full curve, poor fit]	–
COc1ccc(CCNCc2c(-c3ccccc3)n(C)c3ccccc23)cc1	active: 50.1 µM	–
CCc1ccccc1OCCSc1nc(-c2cccs2)nc2cc(=O)[nH]n12	inconclusive: 79.4 µM [inhibitor, partial curve]	–
O=C(/C=C1\C(=O)Nc2ccccc21)/C=C1\C(=O)Nc2ccccc21	active: 44.7 µM	–

SMILES	Potency	activity change, negative = inhibition
CCOC(=O)c1cc(-c2ccccc2)n(CCC(=O)N2CCN(c3ccccn3)CC2)c1C	inconclusive: 79.4 µM [inhibitor, single point]	–
O=C(CC1C(=O)NCCN1Cc1ccccc1C(F)(F)F)NCCN1CCOCC1 (configuration not stated)	inactive	–
C#CCOCCOCCOCCNc1nc(N2CCN(C(=O)[C@H]([C@@H](C)O)n3cc(CCCCN)nn3)CC2)nc(N2CCN(C(=O)[C@H](CCCCN)n3cc(CCCC)nn3)CC2)n1	inconclusive: 89.1 µM [inhibitor, single point]	–
Cc1ccc(-c2cc(C(F)(F)F)c(C#N)c(SCCC#N)n2)o1	inactive	–
CCCc1nnc(SCC(=O)N2CCCC2)n1Cc1ccco1	inactive	–
O=C(O)CNc1ccccc1C(=O)O	inconclusive: 89.1 µM [inhibitor, single point]	–
O=C(COC(=O)/C=C/c1cccc(Br)c1)NCc1ccco1	inconclusive: 89.1 µM [inhibitor, single point]	–
O=C1C2C3C=CC(C3)C2C(=O)N1CNc1ccc(O)cc1 (configuration not stated)	active: 44.7 µM	–
O=C(CCN1CCCCC1=O)NC1CCCN(Cc2ccc(Cl)cc2)C1 (configuration not stated)	inconclusive: 79.4 µM [inhibitor, single point]	–
Cc1cccc(Nc2ccc(S(=O)(=O)N3CCOCC3)cc2[N+](=O)[O-])c1	inconclusive: 22.4 µM [inhibitor, full curve]	–
CCOC(=O)c1c(NC(=O)C2CC(Cl)=CCC2C(=O)O)sc2c1CCCCC2 (configuration not stated)	active: 50.1 µM	–
O=C(CCCSc1nc2ccccc2s1)Nc1nccs1	inactive	–
Cn1c(SCC(=O)NC2CCCCC2)nnc1-c1cc2cc(Cl)ccc2o1	inconclusive: 35.5 µM [inhibitor, single point]	–
O=C(NCC1CCCO1)C(c1ccc(F)cc1)N(Cc1ccc2c(c1)OCO2)C(=O)c1ccc(CN2CCOCC2)o1 (configuration not stated)	inconclusive: 79.4 µM [inhibitor, single point]	–
CCc1cccc(C)c1NC(=O)CCCN1C(=O)CN(C)C1=O	inactive	–
CCc1ccccc1NC(=O)Cn1c(=O)n(Cc2ccccc2)c(=O)c2c(C)c(C(=O)N(C)C)sc21	inactive	–
Cn1nccc1C(=O)Nc1sc2c(c1C#N)CCCC2	inactive	–
Cc1csc2nc(-c3cccc(NS(C)(=O)=O)c3)cn12	inconclusive: 89.1 µM [inhibitor, single point]	–
CC1CCN(S(=O)(=O)c2cc(C(=O)NCc3ccc(N(C)C)cc3)n(C)c2)CC1	active: 35.5 µM	–
C/C(=N\Nc1nc2ccccc2[nH]1)c1ccc(Cl)s1	inconclusive: 79.4 µM [inhibitor, single point]	–
Cc1ccccc1CNC(=O)C1CCCN(c2nnc(C)c3c(C)n(-c4ccccc4)nc23)C1 (configuration not stated)	inconclusive: 89.1 µM [inhibitor, single point]	–
Cc1cc(NS(=O)(=O)c2ccc(NC(=O)/C=C/c3c(F)cccc3Cl)cc2)nc(C)n1	inactive	–
CCN1CCN(Cc2c(C(=O)N/N=C(\C)c3ccc(Cl)cc3)nnn2-c2nonc2N)CC1	inconclusive: 79.4 µM [inhibitor, partial curve]	–
CC(C)c1ccc(S(=O)(=O)c2cn(CC(=O)Nc3ccc(F)cc3)c3ccccc3c2=O)cc1	inactive	–
